Experimental data: the supplement of paper PMC12217912
The other results are listed elsewhere or left out. The full chains were built here from the parent and the listed change. Inactive controls read about 0.05.

B1: TEV protease; numbered along this chain (parent)
chain: MGESLFKGPRDYNPISSSICHLTNESDGHTTSLYGIGFGPFIITNKHLFRRNNGTLVVQSLHGVFKVKDTTTLQQHLVDGRDMIIIRMPKDFPPFPQKLKFREPQREERICLVTTNFQTKSMSSMVSDTSCTFPSGDGIFWKHWIQTKDGQCGSPLVSTRDGFIVGIHSASNFTNTNNYFTSVPKNFMELLTNQEAQQWVSGWRLNADSVLWGGHKVFMVKPEEPFQPVKEATQL

Variants of: B1
Assay: raw area under fraction-flipped curve 0-4 h after induction (AUC4h, not background-subtracted), DNA-recorder readout of cleavage of the substrate (dimensionless); higher = more cleavage of the substrate by the protease variant
Details: temperature: 34 °C; time window: 0-4 h after rhamnose induction
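Further: Bxb1 expression induced with 0.2% (w/v) L-rhamnose at OD600 near 0.5, cultures sampled hourly, flipped fraction per protease–substrate barcode pair counted by paired-end Illumina sequencing.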

| Variant | area with substrate ENLYFQI | area with substrate ENLYFQN | area with substrate ENLYFQP | area with substrate ENLYFQS | area with substrate ENLYFQH | area with substrate ENLYFQL | area with substrate ENLYFQQ | area with substrate ENLYFQR | area with substrate ENLYFQK | area with substrate ENLYFQT |
| --- | --- | --- | --- | --- | --- | --- | --- | --- | --- | --- |
| MGESLFKGPRDYNPISSSICHLTNESDGHTTSLYGIGFGPFIITNKHLFRRNNGTLVVQSLHGVFKVKDTTTLQQHLVDGRDMIIIRMPKDFPPFPQKLKFREPQREERICLVTTNFQTKSMSSMVSDTSCTFPSGDGIFWKHWIQTKDGQCGSPLVTTRDGFIVGIHSASNFTNTNNYFTSVPKNFMELLTNQEAQQWVSGWRLNADSVLWGGHKVFMVKPEEPFQPVKEATQL [S158T] | 0.0561 | 0.0682 | 0.0706 | 0.101 |  |  |  |  |  |  |
| MGESLFKGPRDYNPISSSICHLTNESDGHTTSLYGIGFGPFIITNKHLFRRNNGTLVVQSLHGVFKVKDTTTLQQHLVDGRDMIIIRMPKDFPPFPQKLKFREPQREERICLVTTNFQTKSMSSMVSDTSCTFPSGDGIFWKHWIQTKDGQCGSPLVSTRDGFIVGIHSASNFTNTNNYFTSVPKNVMELLTNQEAQQWVSGWRLNADSVLWGGHKVFMVKPEEPFQPVKEATQL [F187V] |  |  | 0.0585 | 0.116 | 0.071 |  |  |  |  |  |
| MGESLFCGPRDYNPISSSICHLTNESDGHTTSLYGIGFGPFIITNKHLFRRNNGTLVVQSLHGVFKVKDTTTLQQHLVDGRDMIIIRMPKDFPPFPQKLKFREPQREERICLVTTNFQTKSMSSMVSDTSCTFPSGDGIFWKHWIQTKDGQCGSPLVSTRDGFIVGIHSASNFTNTNNYFTSVPKNFMELLTNQEAQQWVSGWRLNADSVLWGGHKVFMVKPEEPFQPVKEATQL [K7C] | 0.0644 | 0.0652 |  | 0.0936 |  | 0.0637 | 0.0958 | 0.0507 |  |  |
| MGESLFKGPRDYNPISSSICHLTNESDGHTTSLYGIGFGPFIITNKHLFRRNNGTLVVQSLHGVFKVKDTTTLQQHLVDGRDMIIIRMPKDFPPFPQKLKFREPQREERICLVTTNFQTKSMSSMVSDTSCTFPSGDGIFWKHWIQTKDGQCGSPLVSTRDGFIVGIHSASNFTNTNNYFTSVPKNFMELLTNQEAQQWVFGWRLNADSVLWGGHKVFMVKPEEPFQPVKEATQL [S201F] |  |  |  | 0.0856 |  |  |  |  | 0.0642 | 0.0621 |
| MGESLFKGPRDYNPISSSICHLTNESDGHTTSLYGIGFGPFIITNKHLFRRNNGTLVVQSLHGVFKVKDTTTLQQHLVDGRDMIIIRMPKDFPPFPQKLKFREPQREERICLVTTNFQTKSMSSMVSDTSCTFPSGDGIFWKHWIQTKDGQCGSPLVSTRDGFIVGIHSASNFTNTNNYFTSVPKNFMELLTNQEAQQWVSGWRLNADSVLWGGHKVFMVKPEEPFQIVKEATQL [P228I] | 0.0722 |  | 0.0572 | 0.102 |  |  |  |  | 0.0526 |  |
| MGESLFKGPRDYNPISSSICHLTNESDGHTTSLYGIGFGPFIITNKHLFRRNNGTLVVQSLHGVFKVKDTTTLQQHLVDGRDMIIIRMPKDFPPFPQKLKFREPQREEMICLVTTNFQTKSMSSMVSDTSCTFPSGDGIFWKHWIQTKDGQCGSPLVSTRDGFIVGIHSASNFTNTNNYFTSVPKNFMELLTNQEAQQWVSGWRLNADSVLWGGHKVFMVKPEEPFQPVKEATQL [R109M] | 0.0398 | 0.0541 |  | 0.0933 | 0.0927 |  |  | 0.0628 | 0.063 | 0.0637 |
| MGESLFKGPRDYNPISSSICHLTNESDGHTTSLYGIGFGPFIITNKHLFRRNNGTLVVQSLHGVFKVKDTTTLQQHLVDGRDMIIIRMPKDFPPFPQKLKFREPQREERICLVTTNFQTKSMSSMVSDTSCTFPSGDGIFWKHWIQTKDGQCGSPLVSTRDGFIVGIHSASNFTNTNNYFTSVPKNFMELLTNQEAQQWVSGWRLNADTVLWGGHKVFMVKPEEPFQPVKEATQL [S209T] | 0.0623 |  |  | 0.117 | 0.0831 |  |  |  |  | 0.0696 |
| MGESLFKGPRDYNPISSSICHLTNESDGHTTSLYGIGFGPFIITNKHLFRRNNGTLVVQSLHGVFKVKDTTTLQQHLVDGRDMIIIRMPKDFPPFPQKLKFREPQREERICLVTTNFQTKSMSSMVSDTSCTFPSGDGIFWKHWIQTKDGQCGSPLVSTRDGFIVGIHSASNKTNTNNYFTSVPKNFMELLTNQEAQQWVSGWRLNADSVLWGGHKVFMVKPEEPFQPVKEATQL [F173K] | 0.0501 |  |  | 0.107 |  |  |  |  |  |  |
| MGESLFKGPRDYNPISSSICHLTNESDGHTTSLYGIGFGPFIITNKHLFRRNNGTLVVQSLHGVFKVKDTTTLQQHLVDGRDMIIIRMPKDFPPFPQKLKFREPQREERICLVTTNFQTKSMSSMVSDTSCTFPSGDGIFWKHWIQTKDGQCGSPLVSTRDGFIVGIHSASNFTNTNNYFTSVPKNFHELLTNQEAQQWVSGWRLNADSVLWGGHKVFMVKPEEPFQPVKEATQL [M188H] |  |  |  | 0.105 |  | 0.0592 |  | 0.0553 | 0.0516 |  |
| MGESLFKGPRDYNPISSSICHLTNESDGHTTSLYGIGFGPFIITNKHLFRRNNGTLVVQSLHGVFKVKDTTTLQQHLVDGRDMIIIRMPKDFPPFPQKLKFREPQREERICLVTTNFQTKSMSSMVSDTSGTFPSGDGIFWKHWIQTKDGQCGSPLVSTRDGFIVGIHSASNFTNTNNYFTSVPKNFMELLTNQEAQQWVSGWRLNADSVLWGGHKVFMVKPEEPFQPVKEATQL [C131G] |  | 0.0766 | 0.0494 | 0.087 |  | 0.0601 |  | 0.0585 |  |  |
| MGESLFKGPRDYNPISSSICHLTNESDGHTTSLYGIGFGPFIITNKHLFRRNNGTLVVQSLHGVFKVKDTTTLQQHLVDGRDMIIIRMPKDFPPFPQKLKFREPQREERICLVTTNFQTKSMSSMVSDTSCTFPSGDGIFWKHWIQTKDGQCGSPLVSTRDGFIVGIHSASNFTNTNNYFTSVPKNFMELLTNQEPQQWVSGWRLNADSVLWGGHKVFMVKPEEPFQPVKEATQL [A196P] | 0.0628 |  |  | 0.0942 | 0.0732 |  |  | 0.0626 | 0.0595 |  |

Same assay, conditions: temperature: 34 °C; time window: 0-4 h after rhamnose induction

| Variant | area with substrate ENLYFQW | area with substrate ENLYFQY | area with substrate ENLYFQV | area with substrate ENLYFQM |
| --- | --- | --- | --- | --- |
| MGESLFKGPRDYNPISSSICHLTNESDGHTTSLYGIGFGPFIITNKHLFRRNNGTLVVQSLHGVFKVKDTTTLQQHLVDGRDMIIIRMPKDFPPFPQKLKFREPQREERICLVTTNFQTKSMSSMVSDTSCTFPSGDGIFWKHWIQTKDGQCGSPLVSTRDGFIVGIHSASNFTNTNNYFTSVPKNFMELLTNQEAQQWVFGWRLNADSVLWGGHKVFMVKPEEPFQPVKEATQL [S201F] | 0.0636 |  |  |  |
| MGESLFKGPRDYNPISSSICHLTNESDGHTTSLYGIGFGPFIITNKHLFRRNNGTLVVQSLHGVFKVKDTTTLQQHLVDGRDMIIIRMPKDFPPFPQKLKFREPQREERICLVTTNFQTKSMSSMVSDTSCTFPSGDGIFWKHWIQTKDGQCGSPLVSTRDGFIVGIHSASNFTNTNNYFTSVPKNFMELLTNQEAQQWVSGWRLNADSVLWGGHKVFMVKPEEPFQIVKEATQL [P228I] |  | 0.0762 |  |  |
| MGESLFKGPRDYNPISSSICHLTNESDGHTTSLYGIGFGPFIITNKHLFRRNNGTLVVQSLHGVFKVKDTTTLQQHLVDGRDMIIIRMPKDFPPFPQKLKFREPQREEMICLVTTNFQTKSMSSMVSDTSCTFPSGDGIFWKHWIQTKDGQCGSPLVSTRDGFIVGIHSASNFTNTNNYFTSVPKNFMELLTNQEAQQWVSGWRLNADSVLWGGHKVFMVKPEEPFQPVKEATQL [R109M] |  | 0.0926 | 0.0665 |  |
| MGESLFKGPRDYNPISSSICHLTNESDGHTTSLYGIGFGPFIITNKHLFRRNNGTLVVQSLHGVFKVKDTTTLQQHLVDGRDMIIIRMPKDFPPFPQKLKFREPQREERICLVTTNFQTKSMSSMVSDTSCTFPSGDGIFWKHWIQTKDGQCGSPLVSTRDGFIVGIHSASNFTNTNNYFTSVPKNFHELLTNQEAQQWVSGWRLNADSVLWGGHKVFMVKPEEPFQPVKEATQL [M188H] | 0.0418 | 0.0918 | 0.0498 |  |
| MGESLFKGPRDYNPISSSICHLTNESDGHTTSLYGIGFGPFIITNKHLFRRNNGTLVVQSLHGVFKVKDTTTLQQHLVDGRDMIIIRMPKDFPPFPQKLKFREPQREERICLVTTNFQTKSMSSMVSDTSGTFPSGDGIFWKHWIQTKDGQCGSPLVSTRDGFIVGIHSASNFTNTNNYFTSVPKNFMELLTNQEAQQWVSGWRLNADSVLWGGHKVFMVKPEEPFQPVKEATQL [C131G] | 0.0635 | 0.0809 |  |  |
| MGESLFKGPRDYNPISSSICHLTNESDGHTTSLYGIGFGPFIITNKHLFRRNNGTLVVQSLHGVFKVKDTTTLQQHLVDGRDMIIIRMPKDFPPFPQKLKFREPQREERICLVTTNFQTKSMSSMVSDTSCTFPSGDGIFWKHWIQTKDGQCGSPLVSTRDGFIVGIHSASNFTNTNNYFTSVPKNFMELLTNQEPQQWVSGWRLNADSVLWGGHKVFMVKPEEPFQPVKEATQL [A196P] |  |  |  | 0.0642 |
